Laboratory results from the CheMixHub viscosity set.
The source gives many values for each of these; only a part stands here.

Assay: xn = mol fraction of the nth substance listed

CS(C)=O + O
Settings	viscosity [mPa·s]
293.15 K, 101 kPa, x1 = 0.0275	1.291
293.15 K, 101 kPa, x1 = 0.0594	1.63
293.15 K, 101 kPa, x1 = 0.0965	2.093
293.15 K, 101 kPa, x1 = 0.1408	2.673
293.15 K, 101 kPa, x1 = 0.2628	4.117
293.15 K, 101 kPa, x1 = 0.3526	4.389
293.15 K, 101 kPa, x1 = 0.4782	3.902
298 K, 101 kPa, x1 = 0.01	0.96
298 K, 101 kPa, x2 = 0.33	2.7
298 K, 101 kPa, x2 = 0.43	3.11
298 K, 101 kPa, x2 = 0.52	3.45
298 K, 101 kPa, x2 = 0.59	3.68
298 K, 101 kPa, x2 = 0.65	3.73
298 K, 101 kPa, x2 = 0.7	3.64
298 K, 101 kPa, x2 = 0.78	3.16
298 K, 101 kPa, x2 = 0.81	2.83
298 K, 101 kPa, x2 = 0.84	2.51
298 K, 101 kPa, x2 = 0.89	1.93
298 K, 101 kPa, x2 = 0.91	1.69
298 K, 101 kPa, x2 = 0.93	1.5
298 K, 101 kPa, x2 = 0.96	1.18
298 K, 101 kPa, x2 = 0.98	1.06
298.15 K, 101 kPa, x1 = 0.08921	1.69
298.15 K, 101 kPa, x1 = 0.8856	2.175
298.15 K, 101.33 kPa, x1 = 0.025	1.097
298.15 K, 101.33 kPa, x1 = 0.055	1.35
298.15 K, 101.33 kPa, x1 = 0.09	1.719
298.15 K, 101.33 kPa, x1 = 0.09717	1.854
298.15 K, 101.33 kPa, x1 = 0.13	2.238
298.15 K, 101.33 kPa, x1 = 0.19	2.829
298.15 K, 101.33 kPa, x1 = 0.2026	3.03
298.15 K, 101.33 kPa, x1 = 0.26	3.459
298.15 K, 101.33 kPa, x1 = 0.48	3.45
298.15 K, 101.33 kPa, x1 = 0.5054	3.344
298.15 K, 101.33 kPa, x1 = 0.5937	2.976
298.15 K, 101.33 kPa, x1 = 0.67	2.278
298.15 K, 101.33 kPa, x1 = 0.6965	2.602
298.15 K, 101.33 kPa, x1 = 0.8321	2.264
298.15 K, 101.33 kPa, x1 = 0.9096	2.124
303.15 K, 101 kPa, x1 = 0.0036	0.814
303.15 K, 101 kPa, x1 = 0.0072	0.837
303.15 K, 101 kPa, x1 = 0.011	0.854
303.15 K, 101 kPa, x1 = 0.014	0.877
303.15 K, 101 kPa, x1 = 0.0177	0.901
303.15 K, 101 kPa, x1 = 0.0275	1.019
303.15 K, 101 kPa, x1 = 0.0594	1.269
303.15 K, 101 kPa, x1 = 0.06619	1.27
303.15 K, 101 kPa, x1 = 0.08921	1.48
303.15 K, 101 kPa, x1 = 0.0965	1.598
303.15 K, 101 kPa, x1 = 0.1408	2.004
303.15 K, 101 kPa, x1 = 0.2628	3.014
303.15 K, 101 kPa, x1 = 0.4782	2.924
303.15 K, 101 kPa, x1 = 0.8856	2.005
303.15 K, 101.33 kPa, x1 = 0.025	0.9948
303.15 K, 101.33 kPa, x1 = 0.055	1.205
303.15 K, 101.33 kPa, x1 = 0.09	1.506
303.15 K, 101.33 kPa, x1 = 0.1	1.609
303.15 K, 101.33 kPa, x1 = 0.13	1.977
303.15 K, 101.33 kPa, x1 = 0.19	2.55
303.15 K, 101.33 kPa, x1 = 0.2003	2.539
303.15 K, 101.33 kPa, x1 = 0.26	3.065
303.15 K, 101.33 kPa, x1 = 0.3023	3.149
303.15 K, 101.33 kPa, x1 = 0.3494	3.217
303.15 K, 101.33 kPa, x1 = 0.35	3.306
303.15 K, 101.33 kPa, x1 = 0.4044	3.191
303.15 K, 101.33 kPa, x1 = 0.48	3.151
303.15 K, 101.33 kPa, x1 = 0.5003	2.983
303.15 K, 101.33 kPa, x1 = 0.5974	2.674
303.15 K, 101.33 kPa, x1 = 0.67	2.066
303.15 K, 101.33 kPa, x1 = 0.6975	2.364
303.15 K, 101.33 kPa, x1 = 0.8999	1.911
308.15 K, 101 kPa, x1 = 0.0036	0.74
308.15 K, 101 kPa, x1 = 0.0072	0.762
308.15 K, 101 kPa, x1 = 0.011	0.781
308.15 K, 101 kPa, x1 = 0.014	0.8
308.15 K, 101 kPa, x1 = 0.0177	0.819
308.15 K, 101 kPa, x1 = 0.6195	2.355
308.15 K, 101.33 kPa, x1 = 0.025	0.9157
308.15 K, 101.33 kPa, x1 = 0.055	1.093
308.15 K, 101.33 kPa, x1 = 0.09	1.342
308.15 K, 101.33 kPa, x1 = 0.09717	1.442
308.15 K, 101.33 kPa, x1 = 0.1	1.421
308.15 K, 101.33 kPa, x1 = 0.13	1.735
308.15 K, 101.33 kPa, x1 = 0.19	2.291
308.15 K, 101.33 kPa, x1 = 0.2003	2.217
308.15 K, 101.33 kPa, x1 = 0.2026	2.303
308.15 K, 101.33 kPa, x1 = 0.26	2.681
308.15 K, 101.33 kPa, x1 = 0.3023	2.725
308.15 K, 101.33 kPa, x1 = 0.3208	2.819
308.15 K, 101.33 kPa, x1 = 0.35	2.942
308.15 K, 101.33 kPa, x1 = 0.4044	2.774
308.15 K, 101.33 kPa, x1 = 0.48	2.734
308.15 K, 101.33 kPa, x1 = 0.5003	2.627
308.15 K, 101.33 kPa, x1 = 0.5054	2.583
308.15 K, 101.33 kPa, x1 = 0.5937	2.336
308.15 K, 101.33 kPa, x1 = 0.5974	2.372
308.15 K, 101.33 kPa, x1 = 0.67	1.871
308.15 K, 101.33 kPa, x1 = 0.6965	2.095
308.15 K, 101.33 kPa, x1 = 0.6975	2.128
308.15 K, 101.33 kPa, x1 = 0.8321	1.848
308.15 K, 101.33 kPa, x1 = 0.8999	1.737
313.15 K, 101 kPa, x1 = 0.0036	0.67
313.15 K, 101 kPa, x1 = 0.0072	0.688
313.15 K, 101 kPa, x1 = 0.011	0.709
313.15 K, 101 kPa, x1 = 0.014	0.725
313.15 K, 101 kPa, x1 = 0.0177	0.742
313.15 K, 101 kPa, x1 = 0.0275	0.8362
313.15 K, 101 kPa, x1 = 0.0594	1.028
313.15 K, 101 kPa, x1 = 0.08921	1.15
313.15 K, 101 kPa, x1 = 0.0965	1.24
313.15 K, 101 kPa, x1 = 0.2628	2.283
313.15 K, 101 kPa, x1 = 0.3526	2.456
313.15 K, 101 kPa, x1 = 0.4782	2.334
313.15 K, 101.33 kPa, x1 = 0.025	0.7948
313.15 K, 101.33 kPa, x1 = 0.055	0.9555
313.15 K, 101.33 kPa, x1 = 0.09	1.198
313.15 K, 101.33 kPa, x1 = 0.1	1.26
313.15 K, 101.33 kPa, x1 = 0.19	1.911
313.15 K, 101.33 kPa, x1 = 0.2003	1.937
313.15 K, 101.33 kPa, x1 = 0.26	2.25
313.15 K, 101.33 kPa, x1 = 0.3023	2.377
313.15 K, 101.33 kPa, x1 = 0.3494	2.444
313.15 K, 101.33 kPa, x1 = 0.35	2.55
313.15 K, 101.33 kPa, x1 = 0.4044	2.447
313.15 K, 101.33 kPa, x1 = 0.48	2.478
313.15 K, 101.33 kPa, x1 = 0.5003	2.325
313.15 K, 101.33 kPa, x1 = 0.5974	2.119
313.15 K, 101.33 kPa, x1 = 0.67	1.671
313.15 K, 101.33 kPa, x1 = 0.6975	1.912
313.15 K, 101.33 kPa, x1 = 0.7981	1.742
313.15 K, 101.33 kPa, x1 = 0.8999	1.584
318.15 K, 101 kPa, x1 = 0.5193	2.025
318.15 K, 101 kPa, x2 = 0.702	2.102
318.15 K, 101 kPa, x2 = 0.743	1.985
318.15 K, 101 kPa, x2 = 0.812	1.672
318.15 K, 101 kPa, x2 = 0.867	1.346
318.15 K, 101 kPa, x2 = 0.91	1.086
318.15 K, 101 kPa, x2 = 0.945	0.88
318.15 K, 101 kPa, x2 = 0.975	0.724
318.15 K, 101.33 kPa, x1 = 0.025	0.7098
318.15 K, 101.33 kPa, x1 = 0.055	0.8496
318.15 K, 101.33 kPa, x1 = 0.09	1.059
318.15 K, 101.33 kPa, x1 = 0.09717	1.139
318.15 K, 101.33 kPa, x1 = 0.1	1.131
318.15 K, 101.33 kPa, x1 = 0.13	1.32
318.15 K, 101.33 kPa, x1 = 0.19	1.65
318.15 K, 101.33 kPa, x1 = 0.2003	1.713
318.15 K, 101.33 kPa, x1 = 0.3023	2.093
318.15 K, 101.33 kPa, x1 = 0.35	2.35
318.15 K, 101.33 kPa, x1 = 0.4044	2.164
318.15 K, 101.33 kPa, x1 = 0.4137	2.162
318.15 K, 101.33 kPa, x1 = 0.48	2.065
318.15 K, 101.33 kPa, x1 = 0.5003	2.076
318.15 K, 101.33 kPa, x1 = 0.5937	1.874
318.15 K, 101.33 kPa, x1 = 0.67	1.54
318.15 K, 101.33 kPa, x1 = 0.6965	1.705
318.15 K, 101.33 kPa, x1 = 0.6975	1.738
318.15 K, 101.33 kPa, x1 = 0.7981	1.588
318.15 K, 101.33 kPa, x1 = 0.8321	1.53
318.15 K, 101.33 kPa, x1 = 0.8999	1.457
318.15 K, 101.33 kPa, x1 = 0.9096	1.457
323.15 K, 101 kPa, x1 = 0.0275	0.7037
323.15 K, 101 kPa, x1 = 0.0594	0.8485
323.15 K, 101 kPa, x1 = 0.06619	0.84
323.15 K, 101 kPa, x1 = 0.08921	0.96
323.15 K, 101 kPa, x1 = 0.0965	1.038
323.15 K, 101 kPa, x1 = 0.1408	1.262
323.15 K, 101 kPa, x1 = 0.2628	1.804
323.15 K, 101 kPa, x1 = 0.3526	1.884
323.15 K, 101 kPa, x1 = 0.4782	1.934
323.15 K, 101.33 kPa, x1 = 0.1	1.019
323.15 K, 101.33 kPa, x1 = 0.2003	1.521
323.15 K, 101.33 kPa, x1 = 0.3023	1.855
323.15 K, 101.33 kPa, x1 = 0.3494	1.907
323.15 K, 101.33 kPa, x1 = 0.4044	1.942
323.15 K, 101.33 kPa, x1 = 0.5003	1.853
323.15 K, 101.33 kPa, x1 = 0.5974	1.721
323.15 K, 101.33 kPa, x1 = 0.6975	1.573
323.15 K, 101.33 kPa, x1 = 0.7981	1.454
323.15 K, 101.33 kPa, x1 = 0.8999	1.339
